For 71 compounds, displacement results are on record in PubChem BioAssay AID1240 (Sanford-Burnham Center for Chemical Genomics, 2008).

Each structure is given as a SMILES string. Among all 50,000 compounds or so, about 800 (1.6%) showed an effect of 50% or more. Some of the results follow.

The assay has as its target Bcl-2-like protein 10 (Homo sapiens) (UniProt Q9HD36). The assay can be described thus: TR3 peptide-Bcl-B binding displacers, biochemical primary FP assay, phenotype converters (AID 1240).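 Note: 0% = Bcl-B with tracer peptide and DMSO and 100% = tracer peptide lacking Bcl-B.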 The settings on record: GST-Bcl-B / FITC-TR3 peptide fluorescence polarization; stronger effect = higher value; compound at 3.75 mg/L.
Chain of UniProt Q9HD36 (Q9HD36 whole entry, looked up): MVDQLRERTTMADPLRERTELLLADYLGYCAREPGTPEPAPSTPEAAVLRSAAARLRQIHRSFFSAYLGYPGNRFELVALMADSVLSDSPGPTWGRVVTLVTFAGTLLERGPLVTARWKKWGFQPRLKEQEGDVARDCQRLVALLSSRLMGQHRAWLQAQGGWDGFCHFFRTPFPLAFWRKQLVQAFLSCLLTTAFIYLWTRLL
On to `Cc1c(C(c2ccc(I)o2)c2c(C)n(C)n(-c3ccccc3)c2=O)c(=O)n(-c2ccccc2)n1C`, for which the displacement is -2.8%. The result for `CC1=NNC(=O)C1CCC(=O)N/N=C(\C)c1cccc([N+](=O)[O-])c1` (stereo unspecified) reads -10.8%.

As to `O=C(O)C1CCCN1C(=O)Oc1ccccc1` (stereo unspecified), the displacement came out at 5.6%.

Take `CCOC(=O)c1cnn(CCOc2ccccc2)c1N`: the displacement was determined as 2.7%.

With `COC(=O)COc1ccc2ccc(=O)oc2c1`, the displacement is 9.2%. As to `NC(=O)CSc1nc2ccc(Br)cc2[nH]1`, the displacement is 0.6%. Under `COc1ccc2nc(SCC(=O)Nc3ccc(C)cc3)[nH]c2c1` stands -11.5%. In the case of `CCc1cc(C)cc(OCCOc2cccc(C=C3C(=O)NC(=O)NC3=O)c2)c1`, the displacement was -10.4%. Take `CNc1ccc(SC(F)(F)F)cc1C(=O)c1ccccc1`: the displacement was 11.3%. For the compound `CC1=NN(C(=O)c2ccc(Cl)cc2)C(O)(c2cccnc2)C1` (stereo unspecified), the displacement turned out to be 9.1%.

Regarding `O=[N+]([O-])c1ccc(CSc2cccc3cccnc23)cc1`, the displacement is -2.4%. For the compound `Cc1ccc2c(c1)N1C(=O)c3ccccc3C1C1=C(CC(C)(C)CC1=O)N2` (stereo unspecified), the displacement is -6.7%. Under `COc1ccc2c(=O)cc(C(F)(F)F)oc2c1` stands 5.1%; under `CC(=O)C1=C(O)C(=O)N(c2nc3ccccc3s2)C1c1ccc(F)cc1` (stereo unspecified), -5.2%; under `CCOc1ccc(NC(=O)CN(Cc2ccccc2)S(=O)(=O)c2ccc(OC)c(OC)c2)cc1`, 10%.

Consider `COc1cc(OC)cc(C(=O)NCCC2=CCCCC2)c1`, for which the displacement was -6.6%. Take `Cc1ccc(NC(=O)CSc2nc(O)c(Cc3ccccc3)c(=O)n2-c2ccccc2)cc1`: the displacement is 10.6%.

Take `COc1ccccc1OCC(=O)Nc1nc(-c2cccs2)c(NC(=O)c2ccccc2)s1`: the displacement was found to be 9.7%. Take `CSc1ccccc1N=Cc1nc(-c2ccco2)oc1O`: the displacement is -3.1%. Under `O=C(c1cc(-c2ccccc2)nc2ccccc12)N1CCc2ccccc2C1` stands 10.1%. For `CCOc1ccc(/C=C2/NC(=O)NC2=O)cc1Cl`, the displacement is -14.7%. Regarding `CC1(C)CC(C(CCN)c2ccc(F)cc2)CCO1` (stereo unspecified), the displacement came to 6.8%.

For the compound `CCc1cc(=O)oc2cc(OCC(=O)c3ccc(Cl)cc3)ccc12`, the displacement came out at 10.5%.

For `O=C(Nc1c(Cl)cccc1Cl)C1C2CC/C=C\CC/C=C/CCC21` (stereo unspecified), the displacement was 3.6%.

Turning to `CC1(C)CC(=O)C=C(NCCN2CCN(C(=O)Nc3ccccc3)CC2)C1`, the displacement is -16.1%. On to `CCCCNCCCCCOc1cccc(OC)c1`, for which the displacement came out at 8.6%.

`CC(=O)N(C)c1ccc(NC(=O)COc2ccc(Cl)cc2Cl)cc1`: the displacement is -16.3%. Take `COc1ccc(N(CC(=O)NC(C)c2ccccc2)S(=O)(=O)c2ccc(OC)c(OC)c2)cc1` (stereo unspecified): the displacement was -4.7%. `O=C(O)C1C(C(=O)Nc2cccc(Cl)c2)C2C=CC1C21CC1` (stereo unspecified): the displacement was 13.8%. On to `O=C(NCCc1ccccc1)c1ccc(I)cc1`, for which the displacement was 9.7%. For `Cc1ccc(NC(=S)NC(=O)C(=O)Nc2ccccc2)cc1`, the displacement turned out to be 10.5%. For `CC(C)CNC(=O)C(=O)Nc1cccc(Cl)c1Cl`, the displacement was found to be 4.3%. Consider `O=[N+]([O-])c1ccc2nc(SCCc3ccccc3)sc2c1`, for which the displacement was -7.6%. In the case of `CCOc1ccc(OCC)c(C2C(C#N)=C(N)Oc3[nH]c(=O)[nH]c(=O)c32)c1` (stereo unspecified), the displacement is -4.8%. In the case of `Cc1cccc(Oc2cc(NC(=O)c3cccc(F)c3)cc([N+](=O)[O-])c2)c1`, the displacement is -4.7%. The result for `COc1ccc(-n2c(=O)c3c4c(sc3n3cnnc23)CCCC4)cc1` reads -4.4%.

`CCSCCOC(=O)C1=C(C)NC2=C(C(=O)CCC2)C1c1cc(Br)ccc1OC` (stereo unspecified): the displacement amounted to 0.4%. As to `COc1ccc2oc(C(F)F)cc(=O)c2c1`, the displacement was determined as 14.6%. Turning to `S=c1[nH]nc(-c2ccccc2Br)n1-c1ccccc1`, the displacement amounted to 10.4%. As for `CCOC(=O)c1c(NC(=O)CN2CCN(C)CC2)sc2c1CCC(C)C2` (stereo unspecified), the displacement is -1.1%. As to `N#C/C(=C\c1cn(CC(=O)Nc2ccccc2)c2ccccc12)C(=O)NCc1ccccc1`, the displacement came out at 61.2%. With `O=C1OC(c2ccc(Br)cc2)=C/C1=C\c1cc([N+](=O)[O-])ccc1Cl`, the displacement is -14.1%. Consider `CCOc1ccc(C2=C/C(=C/c3cccs3)C(=O)O2)cc1`, for which the displacement worked out at 5.5%. In the case of `CCOc1ccc(N2C(=O)/C(=C/c3ccccc3OC)SC2=S)cc1`, the displacement was -3.4%.

Take `S=C(Nc1ccccc1)Nc1ccc(Oc2ccc(NC(=S)Nc3ccccc3)cc2)cc1`: the displacement came out at 4.6%. Regarding `Cc1c(Br)c(=O)[nH]c(=O)n1Cc1ccccc1`, the displacement is -8.1%. With `C#CCOc1ccc(/C=C2\C(=O)NC(=O)N(c3ccc(OCC)cc3)C2=O)cc1Br`, the displacement is -32.4%.

With `Cc1cc(=O)n(C)c(=O)n1CCCCO`, the displacement was -6.1%.

In the case of `Cc1ccc2c(c1)N(C(=O)CN1C(=O)c3ccccc3C1=O)C(C)(C)c1ssc(=S)c1-2`, the displacement was -3%.

For `CCOc1cc(C=O)ccc1OCc1c(C)no[n+]1[O-]`, the displacement is -3.8%. Turning to `O=C(/C=C(/O)c1ccc(Cl)cc1)C(=O)Nc1ccccc1`, the displacement was -3.3%. With `CC(C(=O)c1ccc(-c2ccccc2)cc1)[n+]1cccc(NC(=O)c2ccccc2)c1` (stereo unspecified), the displacement came out at 11.6%. With `Cc1ccc(OCC(=O)Nc2ccc(F)c([N+](=O)[O-])c2)c(C)c1`, the displacement worked out at 4.8%. On to `O=C(Nc1ccccc1Cl)c1ccn(C(=O)c2cccc(Cl)c2)n1`, for which the displacement is 1.8%. Under `O=C(CC1(C(F)(F)F)NCCN1)c1cccc([N+](=O)[O-])c1` stands 1.3%; under `COc1cc(C=NN2CCN(Cc3ccc(C)cc3C)CC2)cc(Br)c1O`, 10.3%. As to `Cc1ccc(C(=O)O)cc1NC(=O)C1CC=CCC1C(=O)O` (stereo unspecified), the displacement is -5.3%. With `CCC(C(=O)NCCc1ccc(OC)c(OC)c1)c1ccccc1` (stereo unspecified), the displacement is -2.5%.

Take `O=C(CSc1nc2sc3c(c2c(=O)[nH]1)CCCC3)N1CCCCC1`: the displacement was -3%. `CCOc1ccc(N(CC(=O)Nc2ccccc2CC)S(=O)(=O)c2ccc(SC)cc2)cc1`: the displacement was found to be 1.1%. Take `COc1cccc(N(CC(=O)Nc2ccc(I)cc2)S(=O)(=O)c2ccccc2)c1`: the displacement worked out at 2.6%.

As for `O=C(NN=C(/C=C/c1ccccc1)/C=C/c1ccccc1)c1ccc(O)cc1O`, the displacement was -6.1%. For the compound `O=C(c1ccc2c(c1)OCO2)N1CCCc2ccccc21`, the displacement was 2.2%. On to `COc1ccccc1C1C(C(C)=O)=C(O)C(=O)N1c1nc2ccccc2s1` (stereo unspecified), for which the displacement came to 7.7%.

For `CCCc1c(O)nc(SCCN2CCOCC2)n(-c2ccccc2)c1=O`, the displacement was found to be 8.1%. On to `COCC(=O)Nc1ccc2ccccc2c1`, for which the displacement is -2.7%. `NS(=O)(=O)c1cccc(NC(=O)c2ccc([N+](=O)[O-])cc2)c1`: the displacement amounted to 8.4%. As to `O=C(CCN1C(=O)/C(=C\c2cccs2)SC1=S)Nc1ccc(Cl)cc1`, the displacement stood at 77.4%.

Turning to `COC(=O)c1sc(NC(=O)/C=C/c2ccco2)c(C(=O)OC)c1C`, the displacement stood at 15.3%.

Turning to `CCN(CC)CCCNC(=O)c1cccc([N+](=O)[O-])c1C`, the displacement is 18.5%. With `O=C(/C=C/c1ccc(-c2cccc(Cl)c2Cl)o1)c1cccs1`, the displacement was 13.7%.
